Hit rate of the full screen: of about 45,000 compounds, about 65 (0.1%) were called active. Calls follow the shape of the dose curve; as a rule, active = well fitted activation curve with a large enough effect; inconclusive = small, poorly fitted or top-dose-only effect; inactive = no such curve, though single readings can be large or run the other way. Some of the results follow.
molecular target: Galactocerebrosidase (Homo sapiens) (UniProt P54803); assay: A Novel Cell-Based Assay to Identify Small Molecules for B -Galactocerebrosidase; conditions: 145M-Twi-hGALC-G270D cells (Twitcher mouse brain line with human GALC G270D), HMU-beta-Gal fluorescence, 48 h; series mostly up to 57.5 µM; activation: at the top concentration; also: 0% is about no effect; nearly all actives have a fitted effect of over 65% in size
UniProt P54803, sequence (P54803 whole entry, looked up): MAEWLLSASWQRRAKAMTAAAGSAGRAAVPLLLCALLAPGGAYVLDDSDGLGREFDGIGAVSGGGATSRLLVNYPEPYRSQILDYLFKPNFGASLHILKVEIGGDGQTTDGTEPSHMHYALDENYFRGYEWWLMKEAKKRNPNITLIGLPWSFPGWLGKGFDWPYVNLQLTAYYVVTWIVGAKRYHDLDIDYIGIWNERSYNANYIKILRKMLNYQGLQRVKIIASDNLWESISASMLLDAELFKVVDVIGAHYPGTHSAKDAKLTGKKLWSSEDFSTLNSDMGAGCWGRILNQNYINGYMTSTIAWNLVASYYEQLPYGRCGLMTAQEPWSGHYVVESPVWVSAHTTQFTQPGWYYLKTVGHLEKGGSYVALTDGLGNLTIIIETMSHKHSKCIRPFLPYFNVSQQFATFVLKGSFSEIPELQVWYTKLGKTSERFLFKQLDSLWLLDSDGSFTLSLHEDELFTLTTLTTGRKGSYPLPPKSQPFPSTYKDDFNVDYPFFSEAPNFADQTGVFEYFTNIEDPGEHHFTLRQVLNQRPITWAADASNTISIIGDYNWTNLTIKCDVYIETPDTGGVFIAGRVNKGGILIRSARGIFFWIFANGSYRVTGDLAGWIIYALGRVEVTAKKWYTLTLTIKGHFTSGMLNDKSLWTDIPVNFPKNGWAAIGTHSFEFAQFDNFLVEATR
Summary of the method: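 Fluorescence readout: HMU-β-gal cleavage by mutant GALC (0.1 mM final, citrate/phosphate pH 5.2 with 1 mg/mL taurocholate), stopped with carbonate/bicarbonate plus Triton X-100. Cells: murine Twitcher 145M-Twi expressing human G270D GALC; qHTS for activators.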

activation, inactive:
CCc1ccc2nc(N(CCN(CC)CC)C(=O)c3ccco3)sc2c1 -17.4%
COc1ccc(OC)c(CNC(=O)c2cc3c(-c4ccc(OC)c(OC)c4)nn(C)c3s2)c1 -17.3%
Cc1ccc(OCc2nc(-c3ccc(C(=O)N4CCN(c5ccccc5F)CC4)cc3)oc2C)cc1 -14.8%
Cn1nc(C(=O)NCc2ccc(Cl)cc2)c2c1-c1ccccc1S(=O)(=O)C2 -9.5%
Cc1cccc(-n2ncc(C(=O)N3CCN(c4ccc(Cl)cc4)CC3)c2C2CCN(C(=O)OC(C)(C)C)CC2)c1 -6.89%
COc1ccc(CNC(=O)Cn2c(SCC(=O)Nc3ccc(OC)cc3)nc3ccccc32)cc1 -12.2%
O=C1OC(C(=O)Nc2cccc(Br)c2)Cc2ccccc21 (stereo not given) 4.21%
Cc1cccc(N2C(=O)N(CC(=O)C(C)(C)C)c3ccccc3S2(=O)=O)c1C -4.53%
Cc1ccc(C)c(NC(=O)CN2CCCN(Cc3cccc(Cl)c3)S2(=O)=O)c1 -8.68%
COc1ccc(Cl)cc1NC(=O)c1cc(S(=O)(=O)NC2CCCCCC2)ccc1F -14.5%
CN(C)S(=O)(=O)N(CC(=O)NCCSCc1ccccc1)c1ccccc1 -0.891%
CCCCCn1c(=O)[nH]c2cc(C(=O)Nc3cc(C)cc(C)c3)ccc2c1=O -6.94%
CCc1ccc(Sc2cc(C(=O)NCc3ccccc3OC)c3ccccc3n2)cc1 7.36%
Cc1cccc(NC(=O)CSc2cn(CC(=O)N3CCCCCC3)c3ccccc23)c1 -3.73%
Cc1cc(OC(C)C(=O)Nc2c(C(=O)c3ccc(F)cc3)oc3ccccc23)ccc1Cl (stereo not given) -8.48%
COC(=O)c1ccc(OCC2c3cc(OC)c(OC)cc3CCN2C(=O)Cc2ccc(OC)cc2)cc1 (stereo not given) -21.8%
CCc1ccc(Sc2cc(C(=O)NCc3cccc(OC)c3)c3ccccc3n2)cc1 -9.79%
COc1ccc(C2NC(=O)N(C)C3=C2C(=O)N(c2cccc(Cl)c2)C3)cc1 (stereo not given) -6.34%
CCn1c(=O)cc(SCC(=O)NCc2ccc(F)cc2Cl)c2ccccc21 -16.6%
CCOc1ccc(N2CC(NC(=O)C(=O)c3c[nH]c4ccccc34)CC2=O)cc1 (stereo not given) 2.73%
COc1ccc(OCC(=O)Nc2nnc(S(=O)(=O)N3CCc4ccccc43)s2)cc1 -3.52%
Cc1cccc(C)c1Nc1c(-c2ccccc2F)nc2cccc(C)n12 -17.6%
CCOC(=O)c1ccccc1NC(=O)C1CCN(c2ncnc3c2nc2n3CCCCC2)CC1 1.69%
CCOc1ccc(C(=O)/C=C/c2cn(CC(O)CN3CCCCCC3)c3ccccc23)cc1 (stereo not given) -17.9%
CCCCN(CC)CCNC(=O)c1c(C)oc2ncnc(N3CCOCC3)c12 -12.7%
COc1ccc2[nH]c(=O)c(CN(C(=O)c3cccc(Cl)c3)c3ccccc3C)cc2c1 -19.1%
CCOc1ccc(C(=O)c2cn(CC(=O)Nc3ccc(OC)cc3)c3cc4c(cc3c2=O)OCCO4)cc1 -9.29%
Cc1ccc2oc3c(c(=O)c2c1)C(c1ccc(O)cc1)N(Cc1ccc2c(c1)OCO2)C3=O (stereo not given) -19.4%
CCC1(C)CC(=O)c2c(ccc3oc(C(=O)NCc4ccccc4)c(C)c23)O1 (stereo not given) -21.8%
C#CCn1c(C2CC(=O)N(c3ccc(OC)cc3)C2)nc2ccccc21 (stereo not given) -29.6%
CN1CCN(C2(CNC(=O)c3ccc(C(C)(C)C)cc3)CCCCC2)CC1 -9.12%
Cc1cc2nnc(SCc3ccc(F)cc3)n2c2ccccc12 -40.3%
CC(C)CCn1c(=O)c2cccnc2n(CC(=O)Nc2ccc(F)cc2)c1=O -16.2%
Cc1ccc(CNC(=O)c2sc3nc[nH]c(=O)c3c2C)cc1 -9.64%
COc1ccc2occ(CC(=O)Nc3ccc(S(=O)(=O)Nc4nccc(C)n4)cc3)c2c1 -21.8%
CC1CN(c2ccc(Cl)cc2)c2nc3c(c(=O)n(CC(=O)O)c(=O)n3C)n2C1 (stereo not given) -14.3%
COc1ccc(-c2[nH]c(-c3cccc(OC)c3)nc2SCC(=O)Nc2ccc3c(c2)OCO3)cc1 -11.8%
COc1ccccc1-c1nc(SCC(=O)c2ccccc2)n[nH]1 -12.2%
COc1cccc(C(=O)NCc2ccc3c(c2)CCN3C(=O)c2ccncc2)c1 -6.3%
COc1ccc(-n2c3c(c(=O)[nH]c2=O)C(NC(=O)c2ccccc2Cl)(C(F)(F)F)C(=O)N3)cc1 (stereo not given) -8.53%
COc1cccc(CNC(=O)Cn2c(=O)ccc3cc(S(=O)(=O)N4CCC(C)CC4)ccc32)c1 -13.4%
Cc1ccc(NC(=O)c2cc(S(=O)(=O)N(C)C3CCCCC3)ccc2F)cc1C -7.46%
COc1ccc(NC(=O)c2ccc(-c3nc(CSc4ccc(C)cc4)c(C)o3)cc2)cc1Cl -8.88%
CCN(c1cccc(C)c1)S(=O)(=O)c1ccc(N2CCCCS2(=O)=O)cc1 -2%
O=C(Nc1ccc(C(=O)N2CCN(c3cccc(Cl)c3)CC2)cc1)c1nsc2ccccc12 -9.18%
CCCCCN1C(C(=O)c2ccccc2)=C(NC(=O)c2ccc(OC)cc2)c2ccccc2S1(=O)=O -9.12%
COc1ccc(CNc2nc(SCc3ccc(Cl)cc3)nc3ccccc23)cc1 -1.35%
Cc1cc(C)c(NC(=O)C(C)n2c(=O)c(C(F)(F)F)nc3ccccc32)c(C)c1 (stereo not given) -14.9%
CCC(=O)N1CCc2cc(S(=O)(=O)NC(C(=O)NCCc3ccccc3)C(C)C)ccc21 (stereo not given) -20.6%
CCc1nnc(NC(=O)c2nc(S(=O)(=O)Cc3ccc(C)cc3)ncc2Cl)s1 -10.9%
Cc1cc(C)cc(OCC(=O)Nc2nc3c(s2)CC(C(C)(C)C)CC3)c1 (stereo not given) -3.09%
CCOC(=O)CC(NC(=O)CCc1c(C)nc2c(c(C)nn2-c2ccc(C)c(C)c2)c1C)c1ccc(C)cc1 (stereo not given) -19.3%
COc1ccc(OC)c2sc(NC(=O)c3ccc(S(=O)(=O)N4CCCC4)cc3)nc12 -9.15%
Cc1cccc(-n2ncc(C(=O)N3CCN(C4CCCCC4)CC3)c2C2CCN(C(=O)OC(C)(C)C)CC2)c1 -10.1%
CCN(CC)CCNC(=O)c1c(C)oc2ncn(C)c(=O)c12 -9.52%
Cc1oc2ccc(O)c(CN(C)Cc3ccccc3)c2c1C(=O)Nc1ccccc1 -8.66%
O=C(CCc1cn(Cc2ccc(F)cc2)c2ccccc12)NCCc1ccc(Cl)cc1 -10.7%
CC(=O)N1CCOc2cc(S(=O)(=O)NC(C)c3ccccc3)c(Cl)cc21 (stereo not given) 4.04%
Cc1cccc(C(=O)Nc2sc3c(c2C(=O)N2CCCCC2)CCC(C)C3)c1 (stereo not given) -16.2%
COc1cccc(NC(=O)CSc2nc3ccc(NC(=O)c4cccs4)cc3s2)c1 -0.45%

From PubChem BioAssay AID1159614 (National Center for Advancing Translational Sciences (NCATS), 2016)
